# The list shows a part of the results.
# B1: rCnSL-proA (Clitocybe nebularis) (protein)
# chain: AAFFSLVVLLALLPFGIHASALPSTELTPRVNPNLPGPNDVFVGFRGTNNIVGAIYEKDGIKDTPLNNGADAEMGPGSYITDGLFTARIFASGSAGNNPGTTATVCKIYASGVQWRGAPKGYIPVAYFGNGPTAEQRRQTYLRTLGLPGTAIRFGNLNTNPGQGPTAPRQMVVPPGPLRSLLKASCFPAADTRLPQTLHYFEKRVDWNIITAADSQTWGH
# How the values were obtained:
# Test in all cases: glycan array binding signal (z-score within array); higher = stronger binding
# Settings in all cases: glycan notation: IUPAC condensed, linker removed
# [1] = target: Neu5Ac(a2-6)Gal(b1-4)GlcNAc(b1-2)Man(a1-3)[Man(a1-6)]Man(b1-4)GlcNAc(b1-4)GlcNAc
# How it was run: (§1)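 The binding signal is a Z-score computed within each array and averaged over linkers. Arrays of the same protein sequence at different concentrations or buffers were also averaged together. Data originate from 3228 arrays in the Consortium for Functional Glycomics database, kept only where the protein sequence was available.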
# [2] = target: Neu5Ac(a2-6)Gal(b1-4)GlcNAc(b1-2)Man(a1-3)[Neu5Ac(a2-3)Gal(b1-4)GlcNAc(b1-2)Man(a1-6)]Man(b1-4)GlcNAc(b1-4)GlcNAc
# How it was run: as §1
# [3] = target: Neu5Ac(a2-6)Gal(b1-4)GlcNAc(b1-2)Man(a1-3)[Neu5Ac(a2-6)Gal(b1-4)GlcNAc(b1-2)Man(a1-6)]Man(b1-4)GlcNAc(b1-4)GlcNAc
# How it was run: as §1
# [4] = target: Neu5Ac(a2-6)Gal(b1-4)GlcNAc(b1-2)Man(a1-3)[Neu5Ac(a2-6)Gal(b1-4)GlcNAc(b1-2)Man(a1-6)]Man(b1-4)GlcNAc(b1-4)[Fuc(a1-6)]GlcNAc
# How it was run: as §1
# [5] = target: Neu5Ac(a2-6)Gal(b1-4)GlcNAc(b1-2)Man(a1-6)Man(b1-4)GlcNAc(b1-4)GlcNAc
# How it was run: as §1
# [6] = target: Neu5Ac(a2-6)Gal(b1-4)GlcNAc(b1-2)Man(a1-6)[Gal(b1-4)GlcNAc(b1-2)Man(a1-3)]Man(b1-4)GlcNAc(b1-4)GlcNAc
# How it was run: as §1
# [7] = target: Neu5Ac(a2-6)Gal(b1-4)GlcNAc(b1-2)Man(a1-6)[GlcNAc(b1-2)Man(a1-3)]Man(b1-4)GlcNAc(b1-4)GlcNAc
# How it was run: as §1
# [8] = target: Neu5Ac(a2-6)Gal(b1-4)GlcNAc(b1-2)Man(a1-6)[Man(a1-3)]Man(b1-4)GlcNAc(b1-4)GlcNAc
# How it was run: as §1
# [9] = target: Neu5Ac(a2-6)Gal(b1-4)GlcNAc(b1-2)[Neu5Ac(a2-6)Gal(b1-4)GlcNAc(b1-4)]Man(a1-3)[GlcNAc(b1-4)][Neu5Ac(a2-6)Gal(b1-4)GlcNAc(b1-2)[Neu5Ac(a2-6)Gal(b1-4)GlcNAc(b1-6)]Man(a1-6)]Man(b1-4)GlcNAc(b1-4)GlcNAc
# How it was run: as §1
# [10] = target: Neu5Ac(a2-6)Gal(b1-4)GlcNAc(b1-2)[Neu5Ac(a2-6)Gal(b1-4)GlcNAc(b1-4)]Man(a1-3)[GlcNAc(b1-4)][Neu5Ac(a2-6)Gal(b1-4)GlcNAc(b1-4)Man(a1-6)]Man(b1-4)GlcNAc(b1-4)GlcNAc
# How it was run: as §1
# [11] = target: Neu5Ac(a2-6)Gal(b1-4)GlcNAc(b1-2)[Neu5Ac(a2-6)Gal(b1-4)GlcNAc(b1-6)]Man(a1-6)[Neu5Ac(a2-6)Gal(b1-4)GlcNAc(b1-2)Man(a1-3)][GlcNAc(b1-4)]Man(b1-4)GlcNAc(b1-4)GlcNAc
# How it was run: as §1
# [12] = target: Neu5Ac(a2-6)Gal(b1-4)GlcNAc(b1-3)Gal(b1-3)GlcNAc
# How it was run: as §1
# [13] = target: Neu5Ac(a2-6)Gal(b1-4)GlcNAc(b1-3)Gal(b1-4)GlcNAc
# How it was run: as §1
# [14] = target: Neu5Ac(a2-6)Gal(b1-4)GlcNAc(b1-3)Gal(b1-4)GlcNAc(b1-2)Man(a1-3)[Neu5Ac(a2-6)Gal(b1-4)GlcNAc(b1-3)Gal(b1-4)GlcNAc(b1-2)Man(a1-6)]GalNAc
# How it was run: as §1
# [15] = target: Neu5Ac(a2-6)Gal(b1-4)GlcNAc(b1-3)Gal(b1-4)GlcNAc(b1-3)Gal(b1-4)GlcNAc
# How it was run: as §1
# [16] = target: Neu5Ac(a2-6)Gal(b1-4)GlcNAc(b1-3)Gal(b1-4)GlcNAc(b1-3)Gal(b1-4)GlcNAc(b1-2)Man(a1-3)[Neu5Ac(a2-6)Gal(b1-4)GlcNAc(b1-3)Gal(b1-4)GlcNAc(b1-3)Gal(b1-4)GlcNAc(b1-2)Man(a1-6)]GalNAc
# How it was run: as §1
# [17] = target: Neu5Ac(a2-6)Gal(b1-4)GlcNAc(b1-3)Gal(b1-4)GlcNAc(b1-3)GalNAc
# How it was run: as §1
# [18] = target: Neu5Ac(a2-6)Gal(b1-4)GlcNAc(b1-3)Gal(b1-4)GlcNAc(b1-3)[Neu5Ac(a2-6)Gal(b1-4)GlcNAc(b1-3)Gal(b1-4)GlcNAc(b1-6)]GalNAc
# How it was run: as §1
# [19] = target: Neu5Ac(a2-6)Gal(b1-4)GlcNAc(b1-3)Gal(b1-4)GlcNAc(b1-6)[Gal(b1-3)]GalNAc
# How it was run: as §1
# [20] = target: Neu5Ac(a2-6)Gal(b1-4)GlcNAc(b1-3)Gal(b1-4)[Fuc(a1-3)]GlcNAc(b1-3)Gal(b1-4)[Fuc(a1-3)]GlcNAc
# How it was run: as §1
# [21] = target: Neu5Ac(a2-6)Gal(b1-4)GlcNAc(b1-3)GalNAc
# How it was run: as §1
# [22] = target: Neu5Ac(a2-6)Gal(b1-4)GlcNAc(b1-3)[Neu5Ac(a2-6)Gal(b1-4)GlcNAc(b1-6)]GalNAc
# How it was run: as §1
# [23] = target: Neu5Ac(a2-6)Gal(b1-4)GlcNAc(b1-6)GalNAc
# How it was run: as §1
# [24] = target: Neu5Ac(a2-6)Gal(b1-4)GlcNAc(b1-6)[Gal(b1-3)GlcNAc(b1-3)]Gal(b1-4)Glc
# How it was run: as §1
# [25] = target: Neu5Ac(a2-6)Gal(b1-4)GlcNAc(b1-6)[Gal(b1-3)]GalNAc
# How it was run: as §1
# [26] = target: Neu5Ac(a2-6)Gal(b1-4)GlcNAc6S
# How it was run: as §1
# Neu5Ac(a2-6)GalNAc = target: Neu5Ac(a2-6)GalNAc
# How it was run: as §1
# [27] = target: Neu5Ac(a2-6)GalNAc(b1-4)GlcNAc
# How it was run: as §1
# [28] = target: Neu5Ac(a2-6)GalNAc(b1-4)GlcNAc6S
# How it was run: as §1
# [29] = target: Neu5Ac(a2-6)GlcNAc(b1-4)GlcNAc
# How it was run: as §1
# [30] = target: Neu5Ac(a2-6)GlcNAc(b1-4)GlcNAc(b1-4)GlcNAc
# How it was run: as §1
binder,measurement,setting,value
B1,glycan array binding signal (z-score),[1],-0.337
same,glycan array binding signal (z-score),[2],-0.338
same,glycan array binding signal (z-score),[3],-0.049
same,glycan array binding signal (z-score),[4],-0.204
same,glycan array binding signal (z-score),[5],-0.112
same,glycan array binding signal (z-score),[6],-0.373
same,glycan array binding signal (z-score),[7],-0.382
same,glycan array binding signal (z-score),[8],-0.629
same,glycan array binding signal (z-score),[9],-0.213
same,glycan array binding signal (z-score),[10],-0.068
same,glycan array binding signal (z-score),[11],-0.276
same,glycan array binding signal (z-score),[12],0.274
same,glycan array binding signal (z-score),[13],-0.269
same,glycan array binding signal (z-score),[14],-0.02
same,glycan array binding signal (z-score),[15],0.06
same,glycan array binding signal (z-score),[16],3.19
same,glycan array binding signal (z-score),[17],-0.18
same,glycan array binding signal (z-score),[18],2.34
same,glycan array binding signal (z-score),[19],-0.716
same,glycan array binding signal (z-score),[20],-0.502
same,glycan array binding signal (z-score),[21],0.044
same,glycan array binding signal (z-score),[22],-0.191
same,glycan array binding signal (z-score),[23],0.067
same,glycan array binding signal (z-score),[24],-0.348
same,glycan array binding signal (z-score),[25],-0.387
same,glycan array binding signal (z-score),[26],-0.577
same,glycan array binding signal (z-score),Neu5Ac(a2-6)GalNAc,-0.38
same,glycan array binding signal (z-score),[27],-0.633
same,glycan array binding signal (z-score),[28],-0.457
same,glycan array binding signal (z-score),[29],-0.602
same,glycan array binding signal (z-score),[30],-0.896

# Source: the supplement of paper PMC8728848
